From PMC10433963 (2023)

Molecular target: MSMEI_3879 (recombinant) (M. smegmatis, UniProt I7G417)
Assay: MST; 1 mM ATPγS; Kapp from Hill fit

B1: ^H7-SUMOClpC1^FLAG (recombinant ClpC1) (enzyme)
chain: not shown
- Kd: 6.4 µM
